Measured values: the BET-seq Pho4 binding data (Le et al. 2018)
The list shows a part of the results. Values were computed here from the reads of four pooled replicates and scatter widely.

molecular target: T1, Pho4 (S. cerevisiae) (UniProt P07270); assay: relative binding free energy (BET-seq); higher = weaker binding; settings: reference: library average
T1 sequence: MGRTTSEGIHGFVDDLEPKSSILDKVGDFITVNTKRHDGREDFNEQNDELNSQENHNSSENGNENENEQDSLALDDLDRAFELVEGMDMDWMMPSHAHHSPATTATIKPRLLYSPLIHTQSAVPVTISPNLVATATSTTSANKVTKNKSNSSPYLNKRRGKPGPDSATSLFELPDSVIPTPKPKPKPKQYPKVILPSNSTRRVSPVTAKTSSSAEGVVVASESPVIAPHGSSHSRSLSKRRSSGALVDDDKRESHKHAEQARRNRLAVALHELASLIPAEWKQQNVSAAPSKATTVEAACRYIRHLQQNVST

| Sequence | relative binding free energy [kcal/mol] |
| --- | --- |
| TTGTCCACGTGGAAGG | 0 |
| ATAAGCACGTGGGGTC | -0.16 |
| AGATGCACGTGAGGGT | 0.16 |
| GATGGCACGTGATGCT | 0.03 |
| CCGCGCACGTGTGGGG | -0.09 |
| CGGGACACGTGGTGGT | -0.02 |
| AATCACACGTGGTTGG | 0.12 |
| TAGTACACGTGTATTG | 0.03 |
| AGATACACGTGGGTAT | -0.15 |
| TGTCTCACGTGTTCTG | 0.15 |
| AGTTCCACGTGTGGAG | 0.08 |
| GGTATCACGTGACGGT | 0.3 |
| GTGTACACGTGACTGG | 0 |
| TCAGACACGTGTGGGG | 0.12 |
| TCAATCACGTGTTGTA | 0.21 |
| CTGTGCACGTGCTTTG | 0.04 |
| TAGTTCACGTGGCGTT | 0.22 |
| ACCGGCACGTGAGGGT | 0.11 |
| TTTGGCACGTGTGCGT | -0.13 |
| AGTACCACGTGGTGAG | -0.03 |
| GGTCGCACGTGTGCGT | -0.03 |
| TGGTGCACGTGTTGCA | -0.11 |
| TGCGACACGTGGTGGG | -0.01 |

| Sequence | relative binding free energy [kcal/mol] |
| --- | --- |
| TCAATCACGTGGTGTA | 0.28 |
| ACTTGCACGTGGGTTT | -0.14 |
| CGTTTCACGTGGCGAG | 0.3 |
| TTCTACACGTGGTGAT | 0.08 |
| GTAGTCACGTGTCGGT | 0.18 |
| GTGATCACGTGTATAA | 0.22 |
| TTGGCCACGTGTTCGG | -0.12 |
| ATTGGCACGTGGGGGT | -0.24 |
| TGGTTCACGTGAGTAT | 0.35 |
| GTATCCACGTGCGTGG | 0.14 |
| GAGGGCACGTGGATCG | -0.04 |
| ACAGTCACGTGTGTGG | 0.1 |
| GATTTCACGTGGGGCT | 0.37 |
| GGTTACACGTGGGCGA | -0.03 |
| ATAGGCACGTGGTCAT | -0.2 |
| CTACGCACGTGTGGGG | -0.23 |
| GATGTCACGTGTGGTG | 0.14 |
| TTGCGCACGTGCTAGT | -0.15 |
| CGTTTCACGTGGCGGG | 0.13 |
| AGGGACACGTGGTGGA | 0.09 |
| TGATTCACGTGTTTCA | 0.18 |
| AAAGGCACGTGGACGG | -0.11 |
| GGAATCACGTGTGGAA | 0.23 |

| Sequence | relative binding free energy [kcal/mol] |
| --- | --- |
| GTAGTCACGTGCGCTG | 0.1 |
| TGTGGCACGTGGACTC | -0.02 |
| ATTGTCACGTGAGAAG | 0.26 |
| GGGTTCACGTGCGTTT | 0.26 |
| GGGCTCACGTGTTATT | 0.23 |
| GTTGGCACGTGGGCGA | -0.12 |
| AAATGCACGTGGTCTG | -0.22 |
| ATAGTCACGTGGATTG | 0.07 |
| AAGTTCACGTGACGTA | 0.45 |
| TTTCGCACGTGTTTGG | 0.01 |
| AAATGCACGTGAATTT | 0.24 |
| ATGTGCACGTGTTGTT | -0.05 |
| TTTGGCACGTGCGATG | -0.15 |
| GGTTACACGTGTAATT | 0.32 |
| ATTGTCACGTGGTTTC | 0.08 |
| CTTGCCACGTGAGGTG | 0.01 |
| TTGGCCACGTGACGGG | -0.03 |
| CGGGGCACGTGCAGTG | -0.17 |
| TTTTCCACGTGAGTTA | 0.24 |
| TTTGGCACGTGATAGG | -0.01 |
| ATTTTCACGTGAAAAA | 0.42 |
| CTATGCACGTGCGGGT | -0.09 |
| TTGCGCACGTGTCAGT | -0.12 |

| Sequence | relative binding free energy [kcal/mol] |
| --- | --- |
| GACGTCACGTGGCGTG | 0.03 |
| CGAAACACGTGTGGTT | 0.08 |
| TTGAGCACGTGTTTCT | 0.04 |
| TCATGCACGTGGTTTT | -0.1 |
| GGGATCACGTGATGGG | 0.29 |
| TGTTCCACGTGTGGTG | 0.13 |
| AGGGACACGTGAAAGG | 0.23 |
| GGGTTCACGTGGGGCA | 0.29 |
| TCTAGCACGTGGTTTA | -0.21 |
| GTGGTCACGTGAGCGT | 0.27 |
| TGTGTCACGTGAGGCA | 0.29 |
| CTTTACACGTGGTTAG | 0.12 |
| GGTACCACGTGGGGAA | -0.13 |
| TTATCCACGTGCGGTT | 0.03 |
| ATGAGCACGTGGGTTC | -0.24 |
| TGTGGCACGTGTATAC | -0.16 |
| TGTCTCACGTGGGTCG | 0.09 |
| TTGAACACGTGTGGAT | 0.02 |
| GGAACCACGTGAGGGT | 0.27 |
| TTATTCACGTGTGTAG | 0.17 |
| TTGTACACGTGAAGAT | 0.21 |
| AAATGCACGTGGATTG | -0.01 |
| CACGGCACGTGTGGTT | 0.17 |

| Sequence | relative binding free energy [kcal/mol] |
| --- | --- |
| GAAGGCACGTGTCTGG | 0 |
| TGATTCACGTGTGGAA | 0.22 |
| ATCGTCACGTGTTATT | -0.03 |
| TGTAACACGTGAACGT | 0.25 |
| TCCTTCACGTGATGGG | 0.3 |
| GGCGCCACGTGTGGTT | -0.04 |
| GAGGGCACGTGATGTG | 0.14 |
| GTGATCACGTGTTGGA | 0.2 |
| GATTTCACGTGGTAGA | 0.29 |
| AAGCTCACGTGGGGGA | -0.09 |
| TGTGACACGTGTTGAG | -0.05 |
| AATTTCACGTGGCTAG | 0.26 |
| TGAGTCACGTGGTACT | 0.01 |
| GTTTCCACGTGGTTGT | 0.19 |
| ATGTACACGTGGCAGG | -0.05 |
| ATCTGCACGTGTAATG | 0.15 |
| AAAAACACGTGTGGTT | 0.15 |
| TATTTCACGTGCGAGT | 0.13 |
| GAAAGCACGTGGGGGC | -0.02 |
| AGGGTCACGTGGTGAA | -0.01 |
| TCTGTCACGTGTGGCG | 0 |
| GTGTTCACGTGGCGCG | 0.09 |
| GTCCGCACGTGGGTTG | -0.19 |
